# The whole screen tested about 390,000 compounds, of which about 4,700 (1.2%) were called active. The shares of active, inactive and inconclusive entries below differ from those in the screen. Calls follow the shape of the dose curve; as a rule, active = well fitted inhibition curve with a large enough effect; inconclusive = small, poorly fitted or top-dose-only effect, or another doubt; inactive = no such curve, though single readings can be large or run the other way. Potencies beside an inconclusive call are fits to weak or partial responses and may not hold up.
# Biological target: DNA polymerase eta (Homo sapiens) (UniProt Q9Y253)
# Assay: qHTS for Inhibitors of Polymerase Eta
# Settings: recombinant Pol eta, fluorescent DNA replication assay; series mostly up to 114 µM
# Outline: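 Fluorescent replication assay: 50 nM final substrate added after a 15 min room-temperature compound preincubation with 10 nM enzyme. Signal taken at 0 min and again at 10 min.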
# Potency is read from the fitted curve at half-maximal effect; tags tell the direction and shape of the fitted curve.
# Sequence of UniProt Q9Y253 (Q9Y253 whole entry, looked up): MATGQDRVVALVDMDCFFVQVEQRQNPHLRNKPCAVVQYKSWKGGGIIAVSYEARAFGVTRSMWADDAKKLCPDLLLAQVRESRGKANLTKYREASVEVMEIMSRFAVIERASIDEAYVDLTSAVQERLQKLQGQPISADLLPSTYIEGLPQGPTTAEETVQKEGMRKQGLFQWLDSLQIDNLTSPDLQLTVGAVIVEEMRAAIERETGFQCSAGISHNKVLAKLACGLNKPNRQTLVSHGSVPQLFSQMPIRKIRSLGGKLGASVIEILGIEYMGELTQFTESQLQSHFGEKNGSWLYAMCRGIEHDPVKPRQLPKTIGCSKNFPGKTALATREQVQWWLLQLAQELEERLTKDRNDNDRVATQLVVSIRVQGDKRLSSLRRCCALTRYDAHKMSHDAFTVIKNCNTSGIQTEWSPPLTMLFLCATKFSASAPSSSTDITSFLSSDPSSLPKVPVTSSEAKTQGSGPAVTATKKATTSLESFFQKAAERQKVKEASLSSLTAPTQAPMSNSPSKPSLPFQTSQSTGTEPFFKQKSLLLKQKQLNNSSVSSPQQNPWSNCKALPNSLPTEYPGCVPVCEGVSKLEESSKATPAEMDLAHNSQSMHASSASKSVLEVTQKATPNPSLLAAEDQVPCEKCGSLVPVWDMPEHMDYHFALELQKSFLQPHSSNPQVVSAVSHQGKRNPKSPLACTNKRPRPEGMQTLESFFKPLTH
row,Structure (SMILES),Potency
1,COC(=O)c1c(NC(C)=O)sc(C(=O)Nc2ccccc2)c1C,"inconclusive: 100 µM [inhibitor, single point]"
2,CCN(CC)CCCN1C=C2C(=O)C(C)(OC(=O)C3CCCC3)C(=O)C=C2C=C1c1ccsc1 (configuration not stated),"inconclusive: 31.6 µM [inhibitor, full curve]"
3,O=C1C(Cl)=C(N2CCC(C(=O)O)CC2)C(=O)c2ccccc21,active: 10 µM
4,CCn1nc(C)c2c(-c3ccccc3)cc(=O)n(C(C)C(=O)Nc3ccc(OC)c(OC)c3)c21 (configuration not stated),inactive
5,N#CC(C#N)=Cc1cccn1-c1ccc(C(=O)O)cc1,active: 10 µM
6,Cc1cccc(-n2c(C)cc(C(=O)C(=O)Nc3nncs3)c2C)c1,active: 50.1 µM
7,Cc1ccc(S(=O)(=O)/N=C/c2ccco2)cc1,"inconclusive: 39.8 µM [inhibitor, partial curve, poor fit]"
8,CCC(=O)Nc1cc2c3c(c1)CCN3C(=O)CC2,inactive
9,CN1CCN(CC(=O)Nc2nc(-c3c[nH]c4ccccc34)cs2)CC1,"inconclusive: 39.8 µM [inhibitor, partial curve, poor fit]"
10,Cc1cccc(OCCC(=O)Nc2ccc(C)c(S(=O)(=O)N3CCCCC3)c2)c1,"inconclusive: 56.2 µM [inhibitor, partial curve, poor fit]"
11,COc1ccc(-n2c(CN3CCOCC3)nc3ccc([N+](=O)[O-])cc3c2=O)c(OC)c1,"inconclusive: 79.4 µM [inhibitor, partial curve]"
12,COc1ccc(O)c(C(=O)c2cnc3nc4ccccc4n3c2)c1,"inconclusive: 15.8 µM [inhibitor, partial curve, poor fit]"
13,CCOC(=O)c1cc(-c2ccccc2)sc1NC(=O)CSc1nncs1,"inconclusive: 25.1 µM [inhibitor, single point]"
14,CC(C)N=c1scc(-c2cccs2)n1/N=C/c1ccc(O)c(O)c1O,"inconclusive: 4.47 µM [inhibitor, partial curve, poor fit]"
15,COc1ccc(CCNc2ncnc3c2c(-c2ccccc2)cn3-c2ccc(Cl)cc2)cc1OC,"inconclusive: 100 µM [inhibitor, single point]"
16,COc1ccc(/C=N/NC(=O)c2csc(-n3nc(C)cc3C(F)(F)F)n2)cc1,"inconclusive: 15.8 µM [inhibitor, full curve, poor fit]"
17,O=C(CNC(=O)c1ccco1)NCC(=O)OC(C(=O)c1ccccc1)c1ccc(Cl)cc1 (configuration not stated),"inconclusive: 25.1 µM [inhibitor, partial curve, poor fit]"
18,O=C1Nc2ccccc2SC1c1ccccc1 (configuration not stated),"inconclusive: 39.8 µM [inhibitor, single point]"
19,Clc1ccc2c(SCC3CO3)c3ccccc3nc2c1 (configuration not stated),"inconclusive: 31.6 µM [inhibitor, single point]"
20,Cc1csc(SCC(=O)Nc2sccc2C#N)n1,active: 79.4 µM
21,Cc1ccccc1NC(=O)/C=C/c1ccc([N+](=O)[O-])s1,"inconclusive: 20 µM [inhibitor, partial curve]"
22,CCOC(=O)c1sc2ncn(CC(=O)Nc3ccc(F)cc3F)c(=O)c2c1C,inactive
23,Cc1cnc(C(=O)NCC(=O)Nc2ccccc2Br)cn1,active: 31.6 µM

row,Structure (SMILES),Potency
1,Cc1cccc(OCCn2cc(/C=N/NC(=O)c3ccncc3)c3ccccc32)c1,"inconclusive: 15.8 µM [inhibitor, full curve, poor fit]"
2,COc1ccccc1Nc1c2c(nc3ccc(NC(=O)c4ccc(N(C)C)cc4)cc13)CCCC2,inactive
3,Cc1c(C(=O)OCCOC(C)C)[nH]c2c1C(=O)CC(c1ccco1)C2 (configuration not stated),active: 25.1 µM
4,COc1cccc(-c2nc(-c3ccc(NC(=O)c4ccncc4)cc3)no2)c1,active: 35.5 µM
5,CC(=O)n1cc(N(C(=O)CCl)c2ccc(C)cc2)c2ccccc21,active: 31.6 µM
6,COc1c(Cl)cc(C(=O)NN)cc1Cl,inactive
7,Cc1ccc(S(=O)(=O)NCCC(=O)Nc2ccc(Cl)c(Cl)c2)cc1,"inconclusive: 31.6 µM [inhibitor, partial curve]"
8,Cc1ccc(N(CC2=NCCN2)c2cccc(O)c2)cc1,"inconclusive: 89.1 µM [inhibitor, single point]"
9,CCOC(=O)C(NCc1ccccn1)(NC(=O)c1cccnc1)C(F)(F)F (configuration not stated),"inconclusive: 79.4 µM [inhibitor, partial curve, poor fit]"
10,O=C(c1ccc2c(c1)N(Cc1ccc(Cl)cc1)C(=O)c1ccccc1S2(=O)=O)N1CCOCC1,"inconclusive: 79.4 µM [inhibitor, partial curve, poor fit]"
11,Cc1sc2nc(CN3CCOCC3)nc(NS(=O)(=O)c3ccccc3)c2c1C,"inconclusive: 14.1 µM [inhibitor, partial curve, poor fit]"
12,Cc1nc(SC(C)C(=O)Nc2cccc(C(F)(F)F)c2)c2c(C)c(C(=O)O)sc2n1 (configuration not stated),"inconclusive: 22.4 µM [inhibitor, full curve]"
13,COc1ccc(CCNC(=O)c2ccc(CNS(=O)(=O)c3cccc(Cl)c3)cc2)cc1OC,"inconclusive: 56.2 µM [inhibitor, partial curve, poor fit]"
14,O=C(N/N=C/c1ccccc1Cl)c1[nH]c2ccc(Br)cc2c1-c1ccccc1,active: 50.1 µM
15,Cc1[nH]c(=O)[nH]c1C(=O)CCCCC(=O)OCC(=O)Nc1ccccn1,"inconclusive: 15.8 µM [inhibitor, partial curve, poor fit]"
16,O=C1Nc2ccc(S(=O)(=O)N3CCCCCC3)c3cccc1c23,"inconclusive: 39.8 µM [inhibitor, single point]"
17,COc1ccc(NC(=O)CN(C)C(=O)c2cc(-c3ccco3)nc3ccccc23)cc1,active: 2.82 µM
18,O=C(Nc1cccnc1)c1cc2c(ccc3ccccc32)o1,"inconclusive: 25.1 µM [inhibitor, full curve]"
19,O=C(NCc1ccc(OC(F)(F)F)cc1)C1CC(c2c(Cl)cccc2Cl)=NO1 (configuration not stated),"inconclusive: 79.4 µM [inhibitor, partial curve, poor fit]"
20,Oc1cccc(/C=N/Nc2ncnc3c2ncn3Cc2ccccc2)c1,inactive
21,COc1ccccc1CNC(=O)c1cc(S(=O)(=O)N2CCCC(C)C2)cn1C (configuration not stated),"inconclusive: 79.4 µM [inhibitor, partial curve, poor fit]"
22,COc1ccccc1N(C(=O)c1cncc(Br)c1)c1nc(-c2ccc(C)cc2)cs1,"inconclusive: 89.1 µM [inhibitor, partial curve, poor fit]"
23,CN(C)C(=O)c1ccc(-c2cc(C(F)(F)F)n(C)n2)s1,inactive

row,Structure (SMILES),Potency
1,O=C(Nc1ccc(Br)cc1)C1CCCN(C2=NS(=O)(=O)c3ccccc32)C1 (configuration not stated),inactive
2,Cc1cc(NC(=O)c2ccc(N3CCCC3)c([N+](=O)[O-])c2)no1,"inconclusive: 15.8 µM [inhibitor, full curve, poor fit]"
3,O=C(O)c1ccccc1-c1c2cc(I)c(=O)c(I)c-2oc2c(I)c(O)c(I)cc12,active: 15.8 µM
4,CC1=NN(c2ccc(Br)cc2)C(=O)/C1=C/c1ccc(-c2ccccc2C(=O)O)o1,active: 79.4 µM
5,Nc1ccc(Nc2ccccc2N)cc1,inactive
6,CCc1cc2cc(C(=O)Nc3ccc(F)cc3)sc2s1,"inconclusive: 22.4 µM [inhibitor, single point]"
7,COCc1cc(=O)n2[nH]c(-c3ccsc3-n3c(C)ccc3C)cc2n1,active: 10 µM
8,CC1Oc2cc3oc4c(O)c5c(cc4c(=O)c3c(O)c2C1(C)C)C=CC(C)(C)O5 (configuration not stated),"inconclusive: 50.1 µM [inhibitor, partial curve, poor fit]"
9,COc1ccc(C)cc1-n1nnnc1SCC(=O)NC(=O)NCc1ccco1,active: 89.1 µM
10,CN(C)c1ncc(C2=C(Cl)C(=O)C(N3CCCC3)=C(Cl)C2=O)s1,active: 20 µM
11,COC(=O)c1c(NC(=O)CCCC(=O)O)sc2c1CCC2,"inconclusive: 79.4 µM [inhibitor, partial curve]"
12,COc1ccccc1N(CC(=O)Nc1ccccc1C(F)(F)F)S(=O)(=O)c1ccc(C)cc1,"inconclusive: 79.4 µM [inhibitor, partial curve, poor fit]"
13,COc1ccccc1OCC(=O)c1[nH]c(C)c(C(C)=O)c1C,"inconclusive: 17.8 µM [inhibitor, full curve]"
14,O=C1/C(=C\c2ccco2)NC(=S)N1c1ccccc1,"inconclusive: 50.1 µM [inhibitor, partial curve]"
15,Cc1cc2nc(-c3ccc(SCC(=O)Nc4ccc(S(=O)(=O)N5CCCC5)cc4)nc3)[nH]c2cc1C,"inconclusive: 89.1 µM [inhibitor, single point]"
16,CNC(=S)N(Cc1cccs1)Cc1cc2ccc(OC)cc2[nH]c1=O,"inconclusive: 70.8 µM [inhibitor, single point]"
17,COc1ccc(Nc2cc(C)nc(N3CCN(C(=O)c4ccc5c(c4)OCO5)CC3)n2)cc1,"inconclusive: 28.2 µM [inhibitor, partial curve, poor fit]"
18,CC1(C)CC(=O)C=C(c2ccccc2-c2ccc3cc[nH]c3c2)C1=O,"inconclusive: 100 µM [inhibitor, partial curve, poor fit]"
19,O=C(C1=C(O)C(=O)N(CCN2CCOCC2)C1c1cccc([N+](=O)[O-])c1)c1cc2ccccc2o1 (configuration not stated),"inconclusive: 20 µM [inhibitor, partial curve, poor fit]"
20,O=S(=O)(Nc1ccccc1O)c1cccc2cccnc12,inactive
21,N#CC1=C(N)N2C(=C(C#N)C1c1ccc(Br)cc1)Nc1ccccc12 (configuration not stated),active: 56.2 µM
